Experimental data: publication PMC4336329 (PLoS ONE, 2015)
Out of some 310,000 compounds screened, about 2,200 (0.71%) showed an effect of 50% or more. The effect is printed as a negative number. The list shows a part of the results.

Biological target: human ether-à-go-go-related gene (hERG) potassium channel (human, UniProt Q12809)
Assay: primary screen, population patch clamp on CHO cells stably expressing hERG

human ether-à-go-go-related gene (hERG) potassium channel, sequence (Q12809 whole entry, looked up): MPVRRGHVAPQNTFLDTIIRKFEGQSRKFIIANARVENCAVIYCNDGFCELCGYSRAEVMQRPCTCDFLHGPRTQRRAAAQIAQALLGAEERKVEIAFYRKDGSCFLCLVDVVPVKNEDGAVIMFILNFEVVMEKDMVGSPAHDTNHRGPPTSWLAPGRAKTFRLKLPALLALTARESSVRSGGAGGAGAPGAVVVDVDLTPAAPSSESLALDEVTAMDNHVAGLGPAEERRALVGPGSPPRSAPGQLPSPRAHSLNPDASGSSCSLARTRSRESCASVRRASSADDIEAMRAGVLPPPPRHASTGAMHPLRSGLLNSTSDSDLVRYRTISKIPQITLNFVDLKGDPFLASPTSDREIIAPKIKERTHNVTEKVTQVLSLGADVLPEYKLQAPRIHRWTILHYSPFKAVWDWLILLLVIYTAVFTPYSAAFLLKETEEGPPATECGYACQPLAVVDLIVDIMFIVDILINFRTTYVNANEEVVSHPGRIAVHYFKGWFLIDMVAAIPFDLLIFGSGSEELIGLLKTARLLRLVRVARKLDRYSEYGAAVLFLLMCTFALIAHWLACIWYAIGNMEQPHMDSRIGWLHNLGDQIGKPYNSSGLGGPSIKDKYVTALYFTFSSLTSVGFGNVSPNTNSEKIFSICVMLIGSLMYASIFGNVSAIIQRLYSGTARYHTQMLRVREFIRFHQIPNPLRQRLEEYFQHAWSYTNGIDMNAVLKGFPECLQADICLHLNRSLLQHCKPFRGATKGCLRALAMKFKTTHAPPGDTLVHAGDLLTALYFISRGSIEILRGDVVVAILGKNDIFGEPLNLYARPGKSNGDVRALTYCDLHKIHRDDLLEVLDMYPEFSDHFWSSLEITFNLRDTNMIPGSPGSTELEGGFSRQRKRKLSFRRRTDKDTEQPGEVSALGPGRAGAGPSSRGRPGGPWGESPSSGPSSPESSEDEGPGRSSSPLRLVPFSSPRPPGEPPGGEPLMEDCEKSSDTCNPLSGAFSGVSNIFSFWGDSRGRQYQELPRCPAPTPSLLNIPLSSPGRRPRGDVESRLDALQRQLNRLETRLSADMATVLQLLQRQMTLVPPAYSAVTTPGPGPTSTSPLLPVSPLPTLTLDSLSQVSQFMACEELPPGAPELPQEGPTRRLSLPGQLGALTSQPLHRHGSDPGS

Structure (SMILES) | hERG current change (%, negative = inhibition) at 1uM [%]
CC(C)C(NS(=O)(=O)c1cccc(C(F)(F)F)c1)C(=O)NCc1cccs1 (centres unmarked) | 4.64
CC1CCc2nc(/C(C#N)=C/c3cccnc3)sc2C1 (centres unmarked) | 13.3
CC(C)CNC(=O)c1cccc(NC(=O)C(C)Oc2ccccc2)c1 (centres unmarked) | 5.08
C[C@@H]1CC[C@]2(O[C@@H](CCO)C[C@H](O)[C@H]2O)O1 | 13.6
CC1CC(C)(C)N2C(=O)C(=C(C#N)C#N)c3cccc1c32 (centres unmarked) | 15.5
CC1=C(C)C(O)N(Cc2ccccc2)C1=O (centres unmarked) | 15.8
CC(=O)Nc1ccc(O)c(-c2nc3ccccc3s2)c1 | 1.89
CCCC(=O)OCC(=O)Nc1ccccc1C#N | 16
Cc1nn(CC(C)C(=O)N2CCN(S(=O)(=O)c3ccc(Cl)cc3)CC2)c(C)c1C (centres unmarked) | 16.4
O=C1N/C(=C/c2ccc(N3CCCC3)cc2)C(=O)N1c1ccccc1 | 2.81
CCOC(=O)c1ccc2c(c1)nc(SCC(=O)N1CCOCC1)n2CC | 16.9
CCOC(=O)c1ccccc1NC(=O)C1CC(=O)N(C(C)(C)C)C1 (centres unmarked) | 12.2
O=C(N/N=C/c1ccc(N2CCOCC2)o1)c1cccc(C(F)(F)F)c1 | -14.3
COc1ccc2[nH]c(C(=O)O)c(NS(=O)(=O)c3ccc(C)c(C)c3)c2c1 | 13.9
CCc1nc2ccccc2c(C(=O)OC2CCCCC2=O)c1C (centres unmarked) | 10
Cc1ccc(Cn2ccc(NC(=O)c3nc4ncccn4n3)n2)cc1 | 4.73
COc1ccc(-c2cc(C(F)(F)F)c3c(n2)sc2c(O)cc(=O)[nH]c23)c(OC)c1 | 11.4
O=S(=O)(c1cnc[nH]1)N1CCN(C(c2ccc(F)cc2)c2ccc(F)cc2)CC1 | 7.47
Cc1oc(/C=N/NC(=O)CC2(C)OCCO2)cc1Br | 13.8
COc1cccc(OC)c1C(=O)Nc1nnc(C(C)C)s1 | 9.18

Structure (SMILES) | hERG current change (%, negative = inhibition) at 1uM [%]
CC(C)Cn1c(-c2ccccc2)nc2ccccc2c1=O | 4.25
COc1cccc(C(=O)Nc2cc(NC(=O)c3ccco3)ccc2OC)c1 | 8.83
CCOC(=O)N1CCC(NC(=O)c2ccc(CS(=O)(=O)c3ccccc3C)o2)CC1 | -1.89
Nn1c(SCC(=O)N2CCOCC2)nnc1-c1cccnc1 | 24.2
COc1ccc(C(NC(=O)CNC(C)=O)C(=O)Nc2ccc3c(c2)OCCO3)cc1 (centres unmarked) | 6.92
O=C(NCC1CCN(Cc2cccc(Cl)c2)CC1)Nc1ccc(Cl)cc1 | -23.1
O=C(COC(=O)COc1ccc(Br)cc1)Nc1ccc2c(c1)OCCO2 | 11.8
O=C1CSC(=S)N1c1ccc(F)c(Cl)c1 | 11.1
CC(C)N1CCC(=NNc2ccc([N+](=O)[O-])cc2S(=O)(=O)N2CCOCC2)CC1 | -7.92
O=C(N/N=C/c1ccco1)c1cccc(NC(=O)c2ccccc2Cl)c1 | 9.31
CSc1ccc(CN(C)C(C)C(=O)Nc2ccc(F)c(F)c2F)cc1 (centres unmarked) | 13.4
O=C(Nc1ccon1)Nc1ccc(Cl)cc1Cl | 12.4
O=C(Nc1cccc(Cl)c1N1CCCC1)c1ccc([N+](=O)[O-])o1 | 9.79
O=C(O)CCSc1nc(C(F)(F)F)cc(=O)n1-c1ccccc1 | 14.4
c1cc2c(cc1-n1cnnn1)OCO2 | 4.05
CCCCNC(=S)N(C)/N=C/c1ccccc1C(=O)O | 14.3
O=C(Oc1ccccc1)N1CCN(C(=O)c2ccco2)CC1 | 11.1
CC1CCC(NS(=O)(=O)c2ccc3c(c2)CC(=O)N3)CC1 (centres unmarked) | 17.4
CCOC(=O)c1ccc(NC(=S)Nc2cc(C)cc(C)n2)cc1 | 14.4
N#Cc1c(SCC(=O)N2CCOCC2)nsc1SCC(=O)N1CCOCC1 | 10.5

Structure (SMILES) | hERG current change (%, negative = inhibition) at 1uM [%]
Cc1[nH+]csc1CCOC(=O)c1ccc([N+](=O)[O-])cc1.[Cl-] | -6.66
O=C(Nc1ccc(C(=O)NN2C(=O)c3ccccc3C2=O)cc1)c1ccccc1 | 2.31
CCN1CCN(C(=S)c2ccc(OC)cc2)CC1 | -31
CC(=O)c1ccc(OCCN2CCOCC2)cc1.O=C(O)C(=O)O | 2.38
CSc1nc2ccc(NC(=O)c3ccc(Cl)s3)cc2s1 | 7.76
CCO[C@@H]1OC(C(=O)N2CCOCC2)=C[C@H](C(C)(C)C)[C@H]1CCCO | 24.1
Cc1ccc[n+](-c2nc3ccccc3nc2[N-]S(=O)(=O)c2ccccc2)c1 | 13.7
CCOCC(=O)Nc1cc(S(=O)(=O)N2CCOCC2)ccc1N1CCCCC1 | 38.4
CCC(C)N(C(=O)CSc1nnc(COc2ccccc2F)n1N)C1CCS(=O)(=O)C1 (centres unmarked) | 9.27
CCn1nc(NS(=O)(=O)c2ccc(F)cc2)c2cc3cccc(C)c3nc21 | 7.99
Cc1cc(=O)oc2cc(OCC(=O)OCC(=O)NCc3ccc4c(c3)OCO4)ccc12 | 10.1
Cc1cccc(NC(N)=S)c1 | -3.13
COc1ccccc1-c1nnc(NC(=O)c2cccc(N3C(=O)CCC3=O)c2)o1 | 15
COC(=O)C(Cc1ccccc1)NC(=O)CCNC(=O)c1ccco1 (centres unmarked) | 17.7
CCCn1c(SCC(=O)NCCc2ccccc2)nnc1-c1cccnc1 | 7.55
CC1CCCN(C(=O)C2CCN(CC(C)c3ccccc3)CC2)C1.O=C(O)C(=O)O (centres unmarked) | 18.5
Brc1ccccc1-c1nnc(CSc2nncn2-c2ccccc2)o1 | 8.67
CCOC(=O)c1c(C)nc2c3ccccc3ccn12 | 2.99
Cc1cc(C)nc(N2CCCC(C(=O)Nc3ccc4nc(C)c(C)nc4c3)C2)n1 (centres unmarked) | 16.1
